# Sequences with one replicate were seen in a single cluster, so their values are uncertain.
# System: ATP
# Assay: switch fluorescence ratio, 500 uM ATP over buffer (Cy3 cluster intensity, sum of 5 cycles each) (fold (ratio)); higher = stronger signal-on switching upon ATP binding; sequences stand for … in TCGTCGGCAGCGTCAGATGTGTATAAGAGACAGTTTTTTTTTTTTTTTTTTTTTTTTT…TC
# Conditions: aptamer strand: ATP DNA aptamer (quencher-CACCTGGGGGAGTATTGCGGAGGAAGG + anchor), 100 nM annealed; ATP concentration: 500 uM; one replicate
# How it was run: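 Between each of five buffer/ATP cycles, the flow-cell was stripped with NaOH and re-annealed. Each cycle imaged Cy3-labelled switching-strand clusters, annealed to 100 nM quencher-labelled ATP aptamer on a modified Illumina MiSeq flow-cell, first in selection buffer and then after 15 min with 500 uM ATP at 22 °C. The fluorescence ratio is summed target-cycle over summed buffer-cycle Cy3 intensity per cluster, averaged per switch-domain sequence, with clusters outside 100-1000 RFU excluded.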
# 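Further: ATP exposure 15 min at 22 °C before imaging.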
row,Sequence,switch fluorescence ratio
1,GCGTTCCACA,1.1
2,GCGTTCCCTT,1.01
3,GCGTTCGGCG,1
4,GCGTTGAGTT,0.954
5,GCGTTTCATA,0.97
6,GCTAAAGAGG,1.01
7,GCTAAAGCCA,1.01
8,GCTAACAAAG,0.972
9,GCTAACGATA,1.09
10,GCTAACTTCC,2.55
11,GCTAATGGGT,0.981
12,GCTAATTGCT,0.979
13,GCTAATTGTA,0.945
14,GCTACACCCG,1.15
15,GCTACAGGG,1.03
16,GCTACATTC,1.04
17,GCTACGAAGG,1.03
18,GCTACGCAGG,1.65
19,GCTACTGATG,0.994
20,GCTACTTGGC,1.08
21,GCTAGCCCGT,0.973
22,GCTAGCCCTT,1.02
23,GCTAGCTCTG,0.988
24,GCTAGCTTCT,1.02
25,GCTAGTCCAG,1.03

row,Sequence,switch fluorescence ratio
1,GCTAGTTACG,1.06
2,GCTATAACG,1.07
3,GCTATACCCA,1.24
4,GCTATAGCTT,1.01
5,GCTATATTT,0.988
6,GCTATCGCTT,1.03
7,GCTATCTTAC,1.14
8,GCTATGCCTT,0.965
9,GCTATGGGGC,1.02
10,GCTATTATAG,0.971
11,GCTATTCAGC,1.02
12,GCTATTCTAC,1.06
13,GCTATTGGCT,0.97
14,GCTATTGTAT,1
15,GCTATTTGC,1.01
16,GCTATTTTAT,0.954
17,GCTCAGCCAG,1.11
18,GCTCAGGGTT,1.01
19,GCTCATCCGG,1.4
20,GCTCATTAAA,0.991
21,GCTCCTAATG,1.08
22,GCTCGAACTG,1
23,GCTCGACCCC,1.43
24,GCTCGATGGT,1.02
25,GCTCGCGAAT,1.17

row,Sequence,switch fluorescence ratio
1,GCTCGCTAGT,1
2,GCTCGGGAAG,0.99
3,GCTCGGTGGA,0.984
4,GCTCGTAAGC,1.05
5,GCTCTACACC,1.16
6,GCTCTAGTT,1
7,GCTCTCCAGG,3.35
8,GCTCTCTTGA,1.02
9,GCTCTGACGT,1.08
10,GCTCTGGTGA,1.13
11,GCTCTTCGCT,1
12,GCTGAAGAGG,0.972
13,GCTGAAGCTG,1.04
14,GCTGAAGGAG,1
15,GCTGACTTG,0.998
16,GCTGAGAGGT,1.05
17,GCTGAGTTAT,0.972
18,GCTGATCTAC,1.02
19,GCTGATTTGG,0.978
20,GCTGCACCTG,0.998
21,GCTGCGTCGC,0.968
22,GCTGCTATTT,1.01
23,GCTGCTCGCC,1.06
24,GCTGGAACGT,1.12
25,GCTGGATCCC,1.04

row,Sequence,switch fluorescence ratio
1,GCTGGCTCAG,0.971
2,GCTGGGACTA,0.992
3,GCTGGGCATG,1.01
4,GCTGGTGGGA,0.992
5,GCTGTCACAT,1.07
6,GCTGTCCGAA,1.03
7,GCTGTCTACA,1.01
8,GCTGTGACAC,1.06
9,GCTGTGGGGT,1.03
10,GCTGTTTAGT,1.02
11,GCTTAAAGGA,0.967
12,GCTTAACGCA,0.993
13,GCTTAGTCAC,1.02
14,GCTTATAAGG,1.01
15,GCTTATAGAG,1.01
16,GCTTATGTTT,1
17,GCTTCAATTT,0.993
18,GCTTCAGGCA,1.04
19,GCTTCAGTGT,1.01
20,GCTTCCTCAT,1.5
21,GCTTCTCTA,1.01
22,GCTTCTCTGA,0.99
23,GCTTGCGTCC,0.977
24,GCTTGCTGGT,0.967
25,GCTTGGTTAC,1.06

row,Sequence,switch fluorescence ratio
1,GCTTGTATAT,0.97
2,GCTTGTCGTA,0.933
3,GCTTGTCTTG,0.999
4,GCTTTCGTGG,1.01
5,GCTTTGACGG,0.935
6,GCTTTGCTT,1.01
7,GCTTTTACCA,0.951
8,GCTTTTTTGT,0.968
9,GGAAAAATTC,1.03
10,GGAAACCGAT,1.27
11,GGAAACCGCA,2.17
12,GGAAACTACA,1.07
13,GGAAAGCTAC,1.35
14,GGAAAGGAAG,1.04
15,GGAAAGGGCC,1.01
16,GGAAAGTGGG,0.996
17,GGAAATGTCT,0.972
18,GGAAATTAAA,0.996
19,GGAACAATTG,0.956
20,GGAACAGGCA,0.971
21,GGAACCCTTT,1.03
22,GGAACGGAAT,1.09
23,GGAACGTCCT,1.01
24,GGAACTGAGT,0.973
25,GGAACTTGCG,0.961

row,Sequence,switch fluorescence ratio
1,GGAAGAACTA,1.01
2,GGAAGAGGTT,1.16
3,GGAATACAGG,1.08
4,GGAATAGACA,0.986
5,GGAATCCATT,1.01
6,GGAATCGACG,1.01
7,GGAATCTAAA,0.98
8,GGAATGCTGG,1.01
9,GGAATTACCA,1.07
10,GGAATTAGAC,0.979
11,GGACAAAAAA,1
12,GGACAAAGC,1.01
13,GGACAGGAGC,0.971
14,GGACAGGTGC,1.77
15,GGACATACTT,1.42
16,GGACATCCTG,1.02
17,GGACATCGGG,0.996
18,GGACCAAGAT,1.01
19,GGACCTAGGC,0.978
20,GGACCTCGGA,1
21,GGACGAAGCG,1.06
22,GGACGAAGGT,1.01
23,GGACGAC,1.02
24,GGACGAGAAA,1.07
25,GGACGATCCC,1.08

row,Sequence,switch fluorescence ratio
1,GGACGCGCGC,1.04
2,GGACGCTCCT,1.08
3,GGACGGAATT,1.1
4,GGACGGGGTG,0.974
5,GGACGTACTT,1.65
6,GGACGTATGG,0.987
7,GGACGTTCTG,0.942
8,GGACGTTTAT,0.918
9,GGACTAAC,1.01
10,GGACTCGTTG,1.03
11,GGACTGCCTT,1.07
12,GGACTGGGGG,0.984
13,GGACTTTAGT,0.997
14,GGAGAAAAGC,0.996
15,GGAGAAACCT,2.67
16,GGAGAACGTA,1.04
17,GGAGAATGAA,1.02
18,GGAGACAAAT,0.978
19,GGAGACCAGC,1.06
20,GGAGAGTAAT,0.995
21,GGAGAGTGGG,0.963
22,GGAGATCGTC,0.956
23,GGAGCCAGAT,0.994
24,GGAGCCATAT,1.57
25,GGAGCCGTGA,0.973

row,Sequence,switch fluorescence ratio
1,GGAGCTAGTG,0.958
2,GGAGCTTTTT,1.01
3,GGAGGACACG,1.07
4,GGAGGAGCGT,1
5,GGAGGAGGCT,0.971
6,GGAGGAGTAT,0.927
7,GGAGGCCCAT,1.01
8,GGAGGCCGGG,1.02
9,GGAGGCGGGT,0.985
10,GGAGGGGAAT,0.977
11,GGAGGGTATC,1.11
12,GGAGGTGGCA,0.969
13,GGAGGTGGGA,0.994
14,GGAGGTGTAG,0.994
15,GGAGGTTTAG,0.984
16,GGAGTCAGGT,1.01
17,GGAGTCCGCA,1.9
18,GGAGTGCCAA,0.953
19,GGAGTGGACC,1.02
20,GGAGTGGGGA,1.03
21,GGAGTTGGTT,0.98
22,GGAGTTGTGT,0.994
23,GGAGTTTATT,1.02
24,GGATAAAACA,0.963
25,GGATAACTCG,1.06
